Among the data in the supplement of paper PMC10369915 are enrichment score values, retold here.

This is one part of the list. Cut-off read from the data, not from the text of the source: active = 3.2 or more and inactive = the rest. Most of these values are background signal.
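Note: displayed peptides selected on beads carrying the immobilized SH2 domain, with library peptides lacking any tyrosine serving as negative controls.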

In the first test the target is SHP2 C-SH2 domain E139D. Nature of the test: enrichment score (SH2-bound / input frequency) (ratio); bacterial display of known human phosphotyrosine sites (pTyr-Var adds point mutants) read by sequencing; higher = stronger binding; tyrosines were phosphorylated by kinases first. The following applies: peptide library: pTyr-Var.
In the case of VGTKRYMAPDV [ACVRL1_Y375_E379D], the enrichment score was inactive: 0.699.

Consider GIVEDYRPPLF [ACVRL1_Y421_F425L_YF], for which the enrichment score is inactive: 0.927.

As to SSSNPYSTVTV [ACTN2_Y599_M604V], the enrichment score was inactive: 1.34.

In the case of GIVEDYRPTFY [ACVRL1_Y421_P424T], the enrichment score was inactive: 0.747.

Turning to PELIDYGKLWK [ACTN1_Y193_R197W], the enrichment score was inactive: 0.873.

For the molecule VGTKRYVAPEV [ACVRL1_Y375_M376V], the enrichment score was inactive: 0.515.

Consider LTERDYSFVTT [ACTG2_Y199_G198D], for which the enrichment score was inactive: 0.476.

Turning to GGTTMYPGIAD [ACTC1_Y308], the enrichment score was inactive: 0.747.

As to KAIMTYVFSFF [ACTN4_Y260_S262F_YF], the enrichment score is inactive: 1.87.

ISKQGYDEAGP [ACTC1_Y364_E363G]: the enrichment score is inactive: 0.577.

GIVEDYRPPFF [ACVRL1_Y421_YF]: the enrichment score was inactive: 0.961.

Turning to VGTKRYRAPEV [ACVRL1_Y375_M376R], the enrichment score was inactive: 0.465.

As for VGTKQYMAPEV [ACVRL1_Y375_R374Q], the enrichment score is inactive: 0.843.

Consider WHHTFYNELRV [ACTA1_Y93], for which the enrichment score is inactive: 2.61.

Take GIVEDYRPRFF [ACVRL1_Y421_P424R_YF]: the enrichment score was inactive: 0.667.

Turning to KAIMTYVSSFF [ACTN4_Y260_YF], the enrichment score is inactive: 0.791.

On to SLEKGYELPDG [ACTC1_Y242_S241G], for which the enrichment score was inactive: 0.653.

Consider KAIMTYVFSFY [ACTN4_Y260_S262F], for which the enrichment score was inactive: 1.44.

In the next test the target is SHP2 C-SH2 domain wild-type. The description is as above. To be noted: peptide library: pTyr-Var.
For VGTKRYMAPDV [ACVRL1_Y375_E379D], the enrichment score is inactive: 0.667.

With GIVEDYRPPLF [ACVRL1_Y421_F425L_YF], the enrichment score is inactive: 0.881.

With SSSNPYSTVTV [ACTN2_Y599_M604V], the enrichment score is active: 3.27.

Turning to GIVEDYRPTFY [ACVRL1_Y421_P424T], the enrichment score was inactive: 0.939.

Regarding PELIDYGKLWK [ACTN1_Y193_R197W], the enrichment score is inactive: 0.704.

With VGTKRYVAPEV [ACVRL1_Y375_M376V], the enrichment score was inactive: 0.468.

Consider LTERDYSFVTT [ACTG2_Y199_G198D], for which the enrichment score was inactive: 0.411.

On to GGTTMYPGIAD [ACTC1_Y308], for which the enrichment score is inactive: 0.635.

Consider KAIMTYVFSFF [ACTN4_Y260_S262F_YF], for which the enrichment score is inactive: 2.13.

In the case of ISKQGYDEAGP [ACTC1_Y364_E363G], the enrichment score was inactive: 0.507.

As to GIVEDYRPPFF [ACVRL1_Y421_YF], the enrichment score is inactive: 0.708.

Regarding VGTKRYRAPEV [ACVRL1_Y375_M376R], the enrichment score was inactive: 0.432.

With VGTKQYMAPEV [ACVRL1_Y375_R374Q], the enrichment score is inactive: 0.549.

Turning to WHHTFYNELRV [ACTA1_Y93], the enrichment score was inactive: 2.83.

For the molecule GIVEDYRPRFF [ACVRL1_Y421_P424R_YF], the enrichment score is inactive: 0.649.

Turning to KAIMTYVSSFF [ACTN4_Y260_YF], the enrichment score is inactive: 0.721.

For SLEKGYELPDG [ACTC1_Y242_S241G], the enrichment score is inactive: 0.624.

On to KAIMTYVFSFY [ACTN4_Y260_S262F], for which the enrichment score is inactive: 1.4.

The next test deals with SHP2 N-SH2 domain L43F. The test is described as above. To be noted: peptide library: pTyr-Var.
Turning to VGTKRYMAPDV [ACVRL1_Y375_E379D], the enrichment score was inactive: 0.445.

Consider GIVEDYRPPLF [ACVRL1_Y421_F425L_YF], for which the enrichment score is inactive: 0.908.

Take SSSNPYSTVTV [ACTN2_Y599_M604V]: the enrichment score was inactive: 0.804.

Take GIVEDYRPTFY [ACVRL1_Y421_P424T]: the enrichment score was inactive: 0.937.

Regarding PELIDYGKLWK [ACTN1_Y193_R197W], the enrichment score was inactive: 0.808.

Turning to VGTKRYVAPEV [ACVRL1_Y375_M376V], the enrichment score is inactive: 0.415.

With LTERDYSFVTT [ACTG2_Y199_G198D], the enrichment score was inactive: 0.432.

Turning to GGTTMYPGIAD [ACTC1_Y308], the enrichment score was inactive: 0.684.

KAIMTYVFSFF [ACTN4_Y260_S262F_YF]: the enrichment score is inactive: 1.91.

Regarding ISKQGYDEAGP [ACTC1_Y364_E363G], the enrichment score is inactive: 0.619.

Turning to GIVEDYRPPFF [ACVRL1_Y421_YF], the enrichment score was inactive: 1.02.

Turning to VGTKRYRAPEV [ACVRL1_Y375_M376R], the enrichment score is inactive: 0.466.

For VGTKQYMAPEV [ACVRL1_Y375_R374Q], the enrichment score was inactive: 0.723.

In the case of WHHTFYNELRV [ACTA1_Y93], the enrichment score is inactive: 2.57.

Turning to GIVEDYRPRFF [ACVRL1_Y421_P424R_YF], the enrichment score is inactive: 0.589.

For the molecule KAIMTYVSSFF [ACTN4_Y260_YF], the enrichment score is inactive: 0.714.

In the case of SLEKGYELPDG [ACTC1_Y242_S241G], the enrichment score is inactive: 0.729.

With KAIMTYVFSFY [ACTN4_Y260_S262F], the enrichment score is inactive: 0.898.

The next test deals with SHP2 N-SH2 domain T42A. The description is as above. The following applies: peptide library: pTyr-Var.
With VGTKRYMAPDV [ACVRL1_Y375_E379D], the enrichment score was inactive: 0.529.

Turning to GIVEDYRPPLF [ACVRL1_Y421_F425L_YF], the enrichment score is inactive: 0.619.

Regarding SSSNPYSTVTV [ACTN2_Y599_M604V], the enrichment score is inactive: 1.57.

Consider GIVEDYRPTFY [ACVRL1_Y421_P424T], for which the enrichment score is inactive: 0.823.

Regarding PELIDYGKLWK [ACTN1_Y193_R197W], the enrichment score is inactive: 1.03.

For the molecule VGTKRYVAPEV [ACVRL1_Y375_M376V], the enrichment score is inactive: 0.438.

In the case of LTERDYSFVTT [ACTG2_Y199_G198D], the enrichment score was inactive: 0.465.

On to GGTTMYPGIAD [ACTC1_Y308], for which the enrichment score is inactive: 0.679.

For KAIMTYVFSFF [ACTN4_Y260_S262F_YF], the enrichment score was inactive: 1.25.

ISKQGYDEAGP [ACTC1_Y364_E363G]: the enrichment score was inactive: 0.672.

For GIVEDYRPPFF [ACVRL1_Y421_YF], the enrichment score is inactive: 0.67.

As to VGTKRYRAPEV [ACVRL1_Y375_M376R], the enrichment score was inactive: 0.517.

Take VGTKQYMAPEV [ACVRL1_Y375_R374Q]: the enrichment score was inactive: 0.669.

Take WHHTFYNELRV [ACTA1_Y93]: the enrichment score was inactive: 2.58.

For GIVEDYRPRFF [ACVRL1_Y421_P424R_YF], the enrichment score was inactive: 0.458.

Turning to KAIMTYVSSFF [ACTN4_Y260_YF], the enrichment score is inactive: 0.624.

As for SLEKGYELPDG [ACTC1_Y242_S241G], the enrichment score was inactive: 0.475.

Consider KAIMTYVFSFY [ACTN4_Y260_S262F], for which the enrichment score was inactive: 1.02.

In the next test the target is SHP2 N-SH2 domain T52S. The description is as above. The following applies: peptide library: pTyr-Var.
With VGTKRYMAPDV [ACVRL1_Y375_E379D], the enrichment score was inactive: 0.62.

Take GIVEDYRPPLF [ACVRL1_Y421_F425L_YF]: the enrichment score is inactive: 0.748.

Regarding SSSNPYSTVTV [ACTN2_Y599_M604V], the enrichment score was inactive: 0.663.

As for GIVEDYRPTFY [ACVRL1_Y421_P424T], the enrichment score was inactive: 0.884.

PELIDYGKLWK [ACTN1_Y193_R197W]: the enrichment score was inactive: 0.758.

As to VGTKRYVAPEV [ACVRL1_Y375_M376V], the enrichment score is inactive: 0.445.

Consider LTERDYSFVTT [ACTG2_Y199_G198D], for which the enrichment score is inactive: 0.359.

On to GGTTMYPGIAD [ACTC1_Y308], for which the enrichment score was inactive: 0.66.

As for KAIMTYVFSFF [ACTN4_Y260_S262F_YF], the enrichment score was inactive: 1.87.

For the molecule ISKQGYDEAGP [ACTC1_Y364_E363G], the enrichment score is inactive: 0.785.

In the case of GIVEDYRPPFF [ACVRL1_Y421_YF], the enrichment score is inactive: 1.06.

Regarding VGTKRYRAPEV [ACVRL1_Y375_M376R], the enrichment score was inactive: 0.391.

Take VGTKQYMAPEV [ACVRL1_Y375_R374Q]: the enrichment score was inactive: 0.75.

WHHTFYNELRV [ACTA1_Y93]: the enrichment score is inactive: 2.59.

For the molecule GIVEDYRPRFF [ACVRL1_Y421_P424R_YF], the enrichment score is inactive: 0.691.

Consider KAIMTYVSSFF [ACTN4_Y260_YF], for which the enrichment score was inactive: 1.08.

Consider SLEKGYELPDG [ACTC1_Y242_S241G], for which the enrichment score is inactive: 0.518.

As to KAIMTYVFSFY [ACTN4_Y260_S262F], the enrichment score was inactive: 1.24.

A further test concerns the target SHP2 N-SH2 domain wild-type. The test is described as above. The following applies: peptide library: pTyr-Var.
VGTKRYMAPDV [ACVRL1_Y375_E379D]: the enrichment score was inactive: 0.51.

On to GIVEDYRPPLF [ACVRL1_Y421_F425L_YF], for which the enrichment score was inactive: 0.813.

Regarding SSSNPYSTVTV [ACTN2_Y599_M604V], the enrichment score was inactive: 0.649.

For the molecule GIVEDYRPTFY [ACVRL1_Y421_P424T], the enrichment score was inactive: 0.989.

For the molecule PELIDYGKLWK [ACTN1_Y193_R197W], the enrichment score is inactive: 0.717.

For the molecule VGTKRYVAPEV [ACVRL1_Y375_M376V], the enrichment score was inactive: 0.532.

With LTERDYSFVTT [ACTG2_Y199_G198D], the enrichment score was inactive: 0.62.

As to GGTTMYPGIAD [ACTC1_Y308], the enrichment score is inactive: 0.728.

For the molecule KAIMTYVFSFF [ACTN4_Y260_S262F_YF], the enrichment score is inactive: 1.59.

In the case of ISKQGYDEAGP [ACTC1_Y364_E363G], the enrichment score was inactive: 0.72.

Take GIVEDYRPPFF [ACVRL1_Y421_YF]: the enrichment score is inactive: 0.937.

On to VGTKRYRAPEV [ACVRL1_Y375_M376R], for which the enrichment score was inactive: 0.479.

Take VGTKQYMAPEV [ACVRL1_Y375_R374Q]: the enrichment score is inactive: 0.626.

For WHHTFYNELRV [ACTA1_Y93], the enrichment score was inactive: 2.56.

With GIVEDYRPRFF [ACVRL1_Y421_P424R_YF], the enrichment score was inactive: 0.735.

On to KAIMTYVSSFF [ACTN4_Y260_YF], for which the enrichment score is inactive: 0.687.

As to SLEKGYELPDG [ACTC1_Y242_S241G], the enrichment score is inactive: 0.579.

As to KAIMTYVFSFY [ACTN4_Y260_S262F], the enrichment score is inactive: 1.72.
